Data published in the supplement of paper PMC6609913.
Structures can show the parent of a compound that is named as a salt. ± gives the standard deviation of the averaged measurements. In all, about 1,300 compounds were measured (“normalised cell viability”: median about 1, lowest 2% from about 0.15 on). This is one part of the list.

Tested on: V-C8 + BRCA2 (BRCA2-proficient hamster cells)
Experiment: normalised cell viability (fraction of plate median); higher = more viable cells (less toxic)
Conditions: 5 µM
Outline: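 Hamster V-C8 cells lacking BRCA2 and V-C8 cells with BRCA2 restored were seeded in 96-well plates. Library drugs (10 mM DMSO stocks) were added 24 h later at 5 μM in 100 μl medium, next to DMSO control wells, for 3 days (screen 1) or 6 days (screen 2). Cell viability was read by resazurin assay, median-plate normalised (modified robust per cent of sample), and triplicate wells were averaged.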

SMILES	normalised cell viability (treatment time: 3 days)	normalised cell viability (treatment time: 6 days)
CN[C@@H]1[C@@H](O)[C@@H](O[C@@H]2[C@@H](O)[C@H](O[C@H]3OC(CN)=CC[C@H]3N)[C@@H](N)C[C@H]2N)OC[C@]1(C)O [Sisomicin sulfate]	0.292 ± 0.013	0.348 ± 0.033
Cc1cc(NS(=O)(=O)c2ccc(N)cc2)no1 [Sulfamethoxazole]	0.976 ± 0.035	0.981 ± 0.025
O=C1CN(/N=C/c2ccc(-c3ccc([N+](=O)[O-])cc3)o2)C(=O)N1 [Dantrolene sodium salt]	1.01 ± 0.023	1.06 ± 0.034
CCOC(=O)n1ccn(C)c1=S [Carbimazole]	0.926 ± 0.024	0.895 ± 0.017
C[C@H](N)[C@H](O)c1cccc(O)c1 [Metaraminol bitartrate]	1.093 ± 0.01	1.07 ± 0.053
CCN(CC)CCOC(=O)C(Cc1cccc2ccccc12)CC1CCCO1 (stereo unspecified) [Nafronyl oxalate]	0.237 ± 0.025	0.295 ± 0.0076
Cc1ccccc1OCC(O)CO (stereo unspecified) [Mephenesin]	0.995 ± 0.014	1.03 ± 0.037
O=C1CN(/N=C/c2ccc([N+](=O)[O-])o2)C(=O)N1 [Nitrofurantoin]	0.979 ± 0.043	0.954 ± 0.043
CCCC1O[C@@H]2C[C@H]3[C@@H]4CCC5=CC(=O)C=C[C@]5(C)[C@H]4[C@@H](O)C[C@]3(C)[C@]2(C(=O)CO)O1 (stereo partly specified) [Budesonide]	0.9516 ± 0.0071	0.936 ± 0.024
Nc1nc2c(ncn2COCCO)c(=O)[nH]1 [Acyclovir]	0.938 ± 0.031	1.01 ± 0.036
CCCCCN(CCCCC)C(=O)C(CCC(=O)O)NC(=O)c1ccc(Cl)c(Cl)c1 (stereo unspecified) [Lorglumide sodium salt]	1 ± 0.032	1.04 ± 0.015
CC(C)(C)NC(=O)[C@@H]1C[C@@H]2CCCC[C@@H]2CN1C[C@@H](O)[C@H](Cc1ccccc1)NC(=O)[C@H](CC(N)=O)NC(=O)c1ccc2ccccc2n1 [Saquinavir mesylate]	0.842 ± 0.061	0.952 ± 0.073
COc1ncnc(NS(=O)(=O)c2ccc(N)cc2)c1OC [Sulfadoxine]	0.966 ± 0.088	0.99 ± 0.027
CC(=O)OCC(=O)[C@@]1(O)[C@H](C)C[C@H]2[C@@H]3CCC4=CC(=O)C=C[C@]4(C)[C@@]3(F)[C@@H](O)C[C@@]21C [Dexamethasone acetate]	1.08 ± 0.057	1.02 ± 0.056
COc1ccc(C(=O)c2ccccc2)c(O)c1 [Oxybenzone]	0.942 ± 0.082	0.976 ± 0.033
COc1c(N2C[C@@H]3CCCN[C@@H]3C2)c(F)cc2c(=O)c(C(=O)O)cn(C3CC3)c12 [Moxifloxacin]	1.01 ± 0.11	1.01 ± 0.093
COc1ccc(C(=O)CC(=O)c2ccc(C(C)(C)C)cc2)cc1 [Avobenzone]	1.02 ± 0.057	1.04 ± 0.12
CCOC(=O)C1=C(C)NC(C)=C(C(=O)OCC)C1c1ccccc1/C=C/C(=O)OC(C)(C)C [Lacidipine]	1.09 ± 0.018	1.04 ± 0.083
